# Assay results reported in publication PMC6919601, “Identification of Plasmodium dipeptidyl aminopeptidase allosteric inhibitors by high throughput screening” (PLoS ONE, 2019).
# The campaign covered roughly 110,000 compounds. About 230 (0.21%) showed an effect of 50% or more. Some of the results follow.
# Target: DPAP1 (Plasmodium falciparum, UniProt Q8IIJ9)
# Assay: primary screen, percent inhibition; read by cleavage of a fluorogenic dipeptide substrate; higher = more effect of the substance
# Parameters: species or system P. falciparum D10 trophozoite lysates; single well
# 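Note: 30 min substrate incubation versus DMSO and 10 µM JCP410 controls.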
# Sequence of DPAP1 (Q8IIJ9 whole entry, looked up): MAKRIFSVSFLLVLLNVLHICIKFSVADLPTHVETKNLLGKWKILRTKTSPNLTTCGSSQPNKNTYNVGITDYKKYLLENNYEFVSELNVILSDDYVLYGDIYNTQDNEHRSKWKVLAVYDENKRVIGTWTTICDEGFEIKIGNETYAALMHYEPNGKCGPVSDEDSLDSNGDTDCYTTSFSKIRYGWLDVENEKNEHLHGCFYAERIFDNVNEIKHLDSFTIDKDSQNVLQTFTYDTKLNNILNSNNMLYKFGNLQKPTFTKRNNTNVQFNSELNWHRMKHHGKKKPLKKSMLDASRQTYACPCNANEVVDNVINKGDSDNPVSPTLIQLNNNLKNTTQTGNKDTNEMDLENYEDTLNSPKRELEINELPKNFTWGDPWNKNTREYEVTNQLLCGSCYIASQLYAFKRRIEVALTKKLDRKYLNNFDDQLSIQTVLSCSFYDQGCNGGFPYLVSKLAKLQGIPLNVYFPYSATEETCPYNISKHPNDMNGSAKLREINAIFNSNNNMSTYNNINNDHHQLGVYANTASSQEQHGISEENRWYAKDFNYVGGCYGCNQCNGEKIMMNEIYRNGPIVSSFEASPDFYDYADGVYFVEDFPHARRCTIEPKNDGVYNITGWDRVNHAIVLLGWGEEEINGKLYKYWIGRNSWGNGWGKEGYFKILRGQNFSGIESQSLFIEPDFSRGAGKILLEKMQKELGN
row,Structure (SMILES),% Inhibition @ 10 uM
1,CCCc1[nH]nc2c1C1(CCN(C(=O)OCC)CC1)C(C#N)=C(N)O2,-6.62%
2,CC1(C)CCc2c(O)c(-c3ccccc3)c(=O)n(-c3ccccc3)c2C1,3.05%
3,CCC1CCCCN1S(=O)(=O)c1ccc(Cl)cc1 (centres unmarked),-0.856%
4,Cc1ccccc1CN1CCN(c2ccc(Cl)cc2)CC1,-2.7%
5,O=C(O)C1CC(c2ccccc2O)=NO1 (centres unmarked),-1.37%
6,COc1cc(C2C(C#N)=C(N)Oc3[nH]nc(-c4ccc(Cl)c(Cl)c4)c32)ccc1O (centres unmarked),-0.968%
7,COc1ccc(CN2CCN(Cc3cccc(F)c3)CC2)c(OC)c1OC,5.99%
8,CCc1ccc(NC(=O)c2ccc(C(=O)Nc3ccc(CC)cc3)cc2)cc1,-1.22%
9,CCOc1ccc(CCNC(=O)c2ccc(CS(=O)c3ccc(Br)cc3)o2)cc1 (centres unmarked),-0.434%
10,O=C(Nc1ccc(NC(=O)c2cccs2)cc1)c1cccc(F)c1,-5.26%
11,Oc1ccccc1-c1nc(N2CCCC2)c2ccccc2n1,9.05%
12,COc1ccc2c(c1)C(SCC(=O)NCCc1ccc(Cl)cc1)CC(C)(C)O2 (centres unmarked),-1.89%
13,O=C(Cn1ncc2c3ccccc3n(Cc3ccc(F)cc3)c2c1=O)NCCN1CCOCC1,0.137%
14,Cc1nc2ccccc2c2oc(C(=O)NC(C)CCc3ccccc3)cc12 (centres unmarked),3.2%
15,CCOc1c(Cl)cc(CNCCSc2nnnn2-c2ccccc2)cc1OC,3.84%
16,COc1ccc(C)cc1Cn1c(S(C)(=O)=O)nc2ccccc21,-5.51%
17,O=c1oc2c3c(c(Cl)cc2c2c1CCCC2)OCN(Cc1ccco1)C3,4.13%
18,COc1ccc(CC(=O)N2CCN(c3ccccc3)CC2)cc1OC,-1.57%
19,COc1ccc(S(=O)(=O)N2CCN(c3nc(C)cc(C)n3)CC2)cc1,-6.74%
20,CC(C)CNC(=O)CC(c1ccccc1)c1c(O)ccc2ccccc12 (centres unmarked),-1.68%
21,Cc1ccc(-c2nc(O)nc3ccc(Cl)cc23)cc1,12.1%
22,CC(=O)N1CCC(NCc2cccc(Cl)c2)CC1,-1.75%
23,COc1ccc(C(=O)Nc2ncc(C(F)(F)F)cc2Cl)cc1,6.79%
24,CC(C)N1Cc2c(sc3c2CCCC3)N(C(=O)c2ccccc2)C1,-4%
25,COc1ccc(-c2c(C)s/c(=N\C(=O)c3ccc(OC)c(OC)c3)n2C)cc1,-6.05%
26,CC(Nc1nc(N2CCN(S(C)(=O)=O)CC2)nc2ccccc12)c1ccccc1 (centres unmarked),-4.78%

row,Structure (SMILES),% Inhibition @ 10 uM
1,CCOc1ccc(C(=O)N(Cc2nc(-c3ccc(Cl)cc3)no2)C(C)C)cc1,-1.84%
2,CCC1CCCCN1C1=CC(=O)OC12CCCCC2 (centres unmarked),3.38%
3,CC(Oc1ccc(F)cc1)C(=O)NCCN1CCOCC1 (centres unmarked),0.565%
4,Cc1c(Cl)cccc1-n1ncnc1-c1ccc2c(c1)OCO2,1.57%
5,NC(=O)c1c(NC(=O)c2ccc(F)cc2)sc2c1CCCCC2,-1.89%
6,CCOC(=O)c1[nH]c(C)c(/C(C)=N/O)c1C,-2.44%
7,CN(CCc1ccccn1)Cc1ccccc1F,-0.292%
8,Cn1cccc1Cc1nnc(SCC(=O)Nc2nccs2)n1-c1ccc(Cl)cc1,5.32%
9,COc1ccc(C2C(C#N)=C(N)Oc3[nH]nc(C)c32)cc1OCc1ccc(C(=O)OCC(C)C)cc1 (centres unmarked),1.52%
10,Brc1ccc(Nc2nc(-c3ccc(-c4ccccc4)cc3)cs2)cc1,-2%
11,OCc1nc2ccccc2n1Cc1cccc(Cl)c1,-4.07%
12,CCCCn1c(SCc2cccc(OC)c2)nc2c1c(=O)n(C)c(=O)n2C,1.76%
13,N#CC1(NC(=O)[C@H](Cc2c(F)cccc2F)NC(=O)c2ccc(-c3ccccc3Cl)cc2)CCSCC1,-5.2%
14,CCOc1ccc(-c2cnc(NCc3cc(Cl)ccc3O)n2C)cc1,0.627%
15,CCC(C#CCN1CCOCC1)(CC)OC(C)=O,3.01%
16,O=C1OC(c2cccc(F)c2)=N/C1=C\c1ccc(Cl)cc1Cl,1.25%
17,Nc1ccc(S(=O)(=O)NC2=NC(=O)C([N+](=O)[O-])C(=O)N2)cc1 (centres unmarked),4.65%
18,COc1ccccc1C1=N/C(=C\c2ccccc2C(F)(F)F)C(=O)O1,7.61%
19,O=c1c(-c2ccccc2)c(N2CCCC2)c1=O,-0.255%
20,CCCC(CCC)=C(C#N)C(=O)OCC,-2.77%
21,Cc1ccc(OCC(=O)Nc2nnc(S(=O)(=O)N3CCCCCC3)s2)cc1C,3.3%
22,CCOc1ccc2nc(SCC(=O)Nc3ccccc3C(N)=O)sc2c1,-4.92%
23,O=C(CN1C(=O)C(c2ccccc2)Oc2cccnc21)NCCc1ccc(Cl)cc1 (centres unmarked),-1.53%
24,CCOC(=O)N1CCN(C2CCC(CC)CC2)CC1 (centres unmarked),0.273%
25,COC(=O)c1cc2sccc2n1CC(=O)c1ccccc1,-5.15%
26,CCOC(=O)c1ccc(-c2ccc(/C=C3\C(=O)ON=C3c3ccccc3)o2)cc1,2.24%

row,Structure (SMILES),% Inhibition @ 10 uM
1,CCn1c(/C(C#N)=C/c2ccc(OC)cc2)nc2ccccc21,-1.1%
2,CCc1ccccc1S(=O)(=O)Cc1ccc(C(=O)NCCc2ccccc2)o1,-3.09%
3,Cc1cc2nc(O)c(O)nc2cc1S(=O)(=O)CCC(=O)NC1CCC(C)CC1 (centres unmarked),-4.36%
4,c1ccc2cc(OCCCN3CCOCC3)ccc2c1,-3.94%
5,Cc1ccc(C(=O)N2CCCC2)cc1[N+](=O)[O-],3.47%
6,CCOP(=O)(OCC)C1c2ccccc2OC(=O)C1C(C)=O (centres unmarked),3.34%
7,CCOC(=O)c1sc(N2C(=O)c3oc4ccc(F)cc4c(=O)c3C2c2cccc(O)c2)nc1C (centres unmarked),0.415%
8,N/C(=N\N=C\c1ccccc1Cl)c1nonc1N,5.12%
9,Clc1ccccc1OCCCN1CCCCC1,-1.05%
10,CCOc1cccc(=O)c2c(C)n(-c3ccc4c(c3)OCO4)c(C)c12,0.778%
11,COc1ccc(-n2cnc3nc4c(c(-c5ccccc5)c32)CCCC4)cc1,6.7%
12,Cc1c2cnn(CC(=O)NCc3ccccn3)c(=O)c2c(C)n1Cc1ccccc1,4.4%
13,COc1ccccc1CC(=N)NOC(=O)c1ccc(OC)c(OC)c1,-5.16%
14,O=C(Nc1cc(Cl)cc(Cl)c1)c1cccc([N+](=O)[O-])c1,3.65%
15,O=C(NCC1CCCCC1)C1CCN(c2cnccn2)CC1,0.758%
16,COc1c(Cl)cc(Cl)cc1/C=C/c1cc(C(F)(F)F)nc(O)n1,5.2%
17,CC(C)SC1=NSC2=NC(=O)/C(=C\c3ccc(O)cc3)C(=N)N21,2.54%
18,Cc1nc(-c2ccc(Br)cc2)ncc1C(=O)O,-5.11%
19,COCc1cc(C)nc(NC2CC(C)(C)NC(C)(C)C2)c1C#N,1.76%
20,COc1ccc(CN2CCN(c3ccccc3F)CC2)c(OC)c1C,0.847%
21,Cc1ccc2nc(Cl)c3cc(C(=O)NC4=NC(=O)CN4C)sc3c2c1,4.74%
22,CC(=C\c1ccccc1)/C=C1N=C(/C=C/c2ccccc2)OC/1=O,2.11%
23,Cc1ccc(NC(=O)c2nn(C)cc2Br)c(C)c1,-14.6%
24,COc1ccc(C(=O)NCCc2ccc(OC)c(OC)c2)c(OC)c1,0.35%
25,CC(C)(C)c1ccc(S(=O)(=O)NCc2ccc(C(=O)NCc3ccc(F)cc3)cc2)cc1,-5.64%
26,COCCOC(=O)c1c(C)oc2ccc(OCc3cc(=O)oc4cc(C)cc(C)c34)cc12,-1.11%

row,Structure (SMILES),% Inhibition @ 10 uM
1,O=C(Cn1c(=O)c2cccn2c2cccnc21)NCCCc1ccccc1,-7.24%
2,O=C(O)CC12CC3CC(C1)CC(n1ncc(NCc4ccc(F)cc4)c(Cl)c1=O)(C3)C2,-0.999%
3,CCc1ccc(-n2nnc(S(=O)(=O)c3ccc(C)cc3)c2C)cc1,-4.58%
4,Cc1nc2ccc(S(=O)(=O)NC(C(=O)Nc3nccs3)C(C)C)cc2s1 (centres unmarked),9.05%
5,O=C(Cc1noc2ccccc12)Nc1cccnc1Cl,-3.49%
6,Cc1coc2c(C)c3oc(=O)c(CCC(=O)NCc4ccc5c(c4)OCO5)c(C)c3cc12,5.68%
7,COc1ccc2c(c1)nc1n2CN(CC2CCCO2)CN1Cc1ccccc1 (centres unmarked),2.31%
8,Cc1cc(O)c2c(C)c(CC(=O)NCc3ccccc3)c(=O)oc2c1,0.895%
9,Cc1ccc(CNC(=O)CSc2nc3nccnc3c(=O)n2CCc2c[nH]c3ccccc23)cc1,-5.01%
10,Cc1noc(C)c1S(=O)(=O)N(C)CC(=O)NC1CCCCC1,-7.66%
11,CCOC(=O)c1c(N)n(-c2ccc(OC)cc2)c2nc3ccccc3nc12,-7.87%
12,O=S(=O)(c1cc(Cl)ccc1Cl)N1CCCc2ccccc21,3.53%
13,CCn1nc(C)c(NC(=O)c2ccoc2C)c1C,-4.5%
14,Cc1cc(C)nc(N(C#N)CN2C(=O)c3ccccc3C2=O)n1,-0.759%
15,CC(C)CC1Oc2ccccc2C2CC(c3ccccc3O)=NN12 (centres unmarked),-3.72%
16,N#CCNC(=O)C(CSCc1ccccc1)NC(=O)c1cccc(NC(=O)Nc2nncs2)c1 (centres unmarked),-3.49%
17,COc1ccc(CNCc2c(C(=O)O)n(C)c3cc(OC)ccc23)cc1,0.711%
18,CCN(C(=O)C1CCC(C)CC1)c1nc(-c2ccccc2)cs1 (centres unmarked),1.49%
19,CCOc1ccccc1OCC(C)CNC (centres unmarked),-5.35%
20,COc1cccc(N2C(=O)CC(N3CCc4ccccc4C3)C2=O)c1 (centres unmarked),2.42%
21,Cc1ccc(OCC(=O)Nc2nn3c(CC(C)C)nnc3s2)cc1,5.53%
22,CC1=CC=CN2C(=O)C(Cc3ccccc3)(NC(=O)c3ccccc3)N=C12 (centres unmarked),4.22%
23,COc1ccc(C(CC(=O)Nc2cccc(C)n2)N2Cc3ccccc3C2=O)cc1OC (centres unmarked),-1.48%
